# Test results: article PMC4336329 (PLoS ONE, 2015)
# Among all 310,000 compounds or so, about 2,200 (0.71%) showed an effect of 50% or more. Effects have a minus sign here. The list shows a part of the results.
# Target: human ether-à-go-go-related gene (hERG) potassium channel (human, UniProt Q12809)
# Assay: primary screen, population patch clamp on CHO cells stably expressing hERG
# Chain of human ether-à-go-go-related gene (hERG) potassium channel (Q12809 whole entry, looked up): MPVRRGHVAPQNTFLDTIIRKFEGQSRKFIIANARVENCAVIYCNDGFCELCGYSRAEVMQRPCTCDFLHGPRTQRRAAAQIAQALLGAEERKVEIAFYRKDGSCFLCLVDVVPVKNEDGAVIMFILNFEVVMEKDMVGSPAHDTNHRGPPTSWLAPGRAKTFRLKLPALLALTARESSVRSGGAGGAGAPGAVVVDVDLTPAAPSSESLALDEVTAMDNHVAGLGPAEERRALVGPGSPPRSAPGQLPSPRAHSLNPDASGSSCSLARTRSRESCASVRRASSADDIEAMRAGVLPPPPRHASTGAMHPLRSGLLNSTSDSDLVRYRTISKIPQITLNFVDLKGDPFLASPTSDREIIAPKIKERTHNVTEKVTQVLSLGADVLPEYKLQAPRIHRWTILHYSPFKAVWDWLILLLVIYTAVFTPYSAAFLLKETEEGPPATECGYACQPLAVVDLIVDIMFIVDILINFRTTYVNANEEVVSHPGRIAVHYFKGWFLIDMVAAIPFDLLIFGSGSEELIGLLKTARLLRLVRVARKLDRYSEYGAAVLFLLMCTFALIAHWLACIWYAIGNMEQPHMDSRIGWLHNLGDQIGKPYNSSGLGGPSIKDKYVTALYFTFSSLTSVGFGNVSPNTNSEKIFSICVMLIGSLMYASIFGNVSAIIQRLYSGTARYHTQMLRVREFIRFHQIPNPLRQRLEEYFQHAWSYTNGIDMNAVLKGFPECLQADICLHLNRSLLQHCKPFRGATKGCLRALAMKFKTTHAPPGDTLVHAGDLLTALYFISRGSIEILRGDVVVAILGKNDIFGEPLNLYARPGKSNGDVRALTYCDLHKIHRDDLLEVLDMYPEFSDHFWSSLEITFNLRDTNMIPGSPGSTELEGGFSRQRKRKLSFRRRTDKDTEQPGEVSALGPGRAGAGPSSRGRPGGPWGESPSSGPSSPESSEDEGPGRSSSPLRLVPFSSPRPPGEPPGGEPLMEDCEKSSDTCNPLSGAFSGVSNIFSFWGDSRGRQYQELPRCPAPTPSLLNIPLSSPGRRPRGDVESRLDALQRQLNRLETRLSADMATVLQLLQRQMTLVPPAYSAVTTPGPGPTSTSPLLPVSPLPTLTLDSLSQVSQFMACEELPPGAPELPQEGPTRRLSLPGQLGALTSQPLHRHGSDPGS
row,SMILES,"hERG current change (%, negative = inhibition) at 1uM [%]"
1,O=C(NCCN=C1NS(=O)(=O)c2ccccc21)c1ccccc1,13.8
2,Cc1ccccc1Cn1ccc(NC(=O)c2nc3ncccn3n2)n1,13.4
3,NCCc1c[nH]c2ccccc12,17.7
4,FC(F)(F)c1nc(NCc2ccccc2)c2nnn(Cc3ccccc3)c2n1,11.8
5,Cc1c(C(=O)N(Cc2ccco2)Cc2cccs2)oc2ccccc12,-7.49
6,NS(=O)(=O)c1ccc(CNC(=O)/C=C/c2cccc(Cl)c2)cc1,3.67
7,CCOC(=O)C1=C(C)N(C)C(=S)NC1c1ccc(Cl)cc1Cl (stereo not drawn),16.6
8,CC1Cc2cc(-c3csc(NC(=O)Cc4ccccc4)n3)ccc2N1S(C)(=O)=O (stereo not drawn),-2.45
9,COc1ccc(S(=O)(=O)NCc2cccs2)cc1,15.9
10,O=C(Nc1nc(-c2cc(F)ccc2F)cs1)c1ccccn1,10.7
11,CCOc1ccc(NC(=S)C(C#N)=C2N(C)c3ccccc3N2C)cc1,-13.1
12,COc1ccccc1C(=O)NC(=O)COC(=O)c1ccc(Cl)nc1,14
13,CN(C)c1cccc2c(C#N)ccc(N(C)C)c12,-6.16
14,CC(C)c1oc(=O)cc2c1[C@@H](O)[C@H]1OC(=O)[C@@]3(C)C[C@@H](O)[C@@H](O)[C@@]2(C)C13 (stereo partly drawn),7.58
15,CCCCN(CC)CCNc1c(NC2CCN(C(=O)OCC)CC2)c(=O)c1=O,11.8
16,COc1cccc(C2/C(=C(/O)c3ccc(F)cc3)C(=O)C(=O)N2CCN(C)C)c1 (stereo not drawn),15.7
17,CC(C)OCC(O)CN1CCNCC1.Cl (stereo not drawn),8.62
18,COc1cc(NC(=O)CCS(=O)(=O)c2ccc3c(c2)n(C)c(=O)c(=O)n3C)cc(OC)c1,9.28
19,CN1C(=O)C(O)(C2OC(C)(C)CCC2=O)c2ccccc21 (stereo not drawn),1.31
20,CCOC(=O)c1c(C)oc2cc(Sc3ccccc3)c(O)c(O)c12,9.96
21,COc1cccc(C2(CSc3nnc(-c4cc(OC)c(OC)c(OC)c4)o3)OCCO2)c1,-5.17
22,Cc1cccc(C(=O)NNS(=O)(=O)c2ccccc2[N+](=O)[O-])c1,6.95
23,COc1ccc(-n2ncc(C(C)NS(=O)(=O)c3ccc(C(C)=O)cc3)c2C)cc1 (stereo not drawn),10.7

row,SMILES,"hERG current change (%, negative = inhibition) at 1uM [%]"
1,O=C(Cc1ccc(S(=O)(=O)N2CCOCC2)s1)N1CCN(c2ccc(C(F)(F)F)cc2[N+](=O)[O-])CC1,-15.5
2,Cc1noc(NS(=O)(=O)c2ccc(NC(=O)C(C)(C)C)cc2)c1C,14.9
3,O=C(c1c(F)cccc1F)N(Cc1ccccn1)C1CCCC1,16.7
4,NC(=O)CSc1nnc(-c2ccc([N+](=O)[O-])cc2)o1,5.43
5,CC(=O)NS(=O)(=O)c1ccc(NC(=O)CCC(=O)Oc2ccc(C)cc2)cc1,8.92
6,COC(=O)CSc1nc2ccccc2nc1SCC(=O)OC,14
7,Cc1ccc(NC(=O)CN(C)C(=O)CCOc2ccccc2C)cc1,4.67
8,CN1OC(c2ccccc2)=C(CO)C1c1ccccc1 (stereo not drawn),5.08
9,CC1(CCc2ccccc2)NC(=O)N(CC(=O)N2CC(=O)Nc3ccccc32)C1=O (stereo not drawn),6.08
10,COCCCn1c(=O)c2ccccc2n(Cc2ccccc2)c1=O,6.88
11,CC(C)OC(=O)CN1C(=O)C(C)(C)Oc2ccc(C(=O)NC3CC3)cc21,0.145
12,CCCC(=O)N1CCc2cc(-c3nc(N)sc3C)ccc21,13.2
13,CSc1cccc(NC(=O)NCc2cccc(CNC(=O)Nc3cccc(SC)c3)c2)c1,12.5
14,COc1cnc(-c2ccccn2)nc1Sc1ccc(F)cc1,10.3
15,COC(=O)C1=C(C(=O)c2ccc(C)cc2)C(c2ccccc2)n2nnnc2N1 (stereo not drawn),-5.72
16,COc1ccccc1-c1nnc(SCC(=O)N2CC(C)CC(C)C2)o1 (stereo not drawn),8.62
17,NC(=O)N/N=C/C=C/c1ccc(F)cc1,12.3
18,CCN(CC)S(=O)(=O)c1ccc(C(=O)Nc2nnc(CSC)o2)cc1,12.8
19,O=C(c1ccc(S(=O)(=O)N2CCOCC2)cc1)N(c1ccccn1)C1CCCCC1,-3.26
20,CC(C)(C)OC(=O)N[C@H](Cc1ccccc1)C(=O)N1CCC(C(=O)O)CC1,5.76
21,CCN1CCc2c(OCC(=O)Nc3ccc(C)cc3)cccc2C1=O,7.85
22,COCCNc1nc(C)c(C(C)=O)s1,9.62
23,O=C(/C=C/c1ccc(F)cc1)NCc1cccs1,5.83

row,SMILES,"hERG current change (%, negative = inhibition) at 1uM [%]"
1,CCCCNC(=O)Cc1ccc(Br)cc1,13.4
2,Cc1ccccc1C(=O)Nc1ccc2c(c1)OCO2,9.21
3,CN(c1ccc(C(=O)Nc2ccccc2C(=O)N2CCCC2)cc1)S(C)(=O)=O,13.6
4,Clc1ccccc1N=C1SCCS1,10.4
5,CC(C)(C)C(=O)Nc1cccc(-c2nc3ccccc3[nH]2)c1,6.39
6,Cc1ccccc1CN1CCNC(=O)C1CC(=O)O (stereo not drawn),12.5
7,COc1cc(CCc2ccc3c(c2)OCO3)oc(=O)c1,12.8
8,O=C(CN1CCCC1)Nc1ccc(NC(=O)Nc2ccccc2Cl)cc1,-4.47
9,C=CCn1c(O)c(C(CC)=NCCN2CCN(C(=S)NC)CC2)c(=O)[nH]c1=O,8.41
10,Br.COc1ccc(C(=O)CN(Cc2ccccc2)C2=NCCS2)cc1,-0.202
11,COC(=O)c1ccccc1CON1C(=O)C(C)(C)N(OCc2ccccc2C(=O)OC)C(=O)C1(C)C,7.4
12,NC(=O)CC(NC(=O)Cc1ccc(Br)cc1)c1ccc(NCCc2ccccc2F)c([N+](=O)[O-])c1 (stereo not drawn),5.23
13,O=c1[nH]c2cc3c(cc2cc1CN(Cc1ccc2c(c1)OCO2)Cc1nnnn1CC1CCCO1)OCO3 (stereo not drawn),10.4
14,CC1CCN(S(=O)(=O)c2cnc(Cl)c(Br)c2)CC1,6.56
15,Cc1cc(C)nc(SCC(=O)n2c3c(c4ccccc42)CCCC3)n1,10.3
16,Cc1csc(N(C(=O)CCNC(=O)c2ccc([N+](=O)[O-])cc2)c2ccccc2)n1,0.189
17,CC1CN(C(=O)c2cnn3c(C(F)F)cc(-c4ccccc4)nc23)CC(C)O1 (stereo not drawn),4.52
18,O=c1c2ccccc2nc(/C=C/c2cc(Br)ccc2O)n1CCO,4.82
19,Clc1ccc(/C=N/c2c(-c3ccco3)nc3ccccn23)cc1,9.94
20,COc1cc(-c2c(-c3ccc4c(c3)OCO4)noc2C)ccc1F,10
21,Cc1c(=O)n(OCc2ccccc2)c2ccccc2[n+]1[O-],9.46
22,CC1CN(C(=O)c2cccc(S(=O)(=O)Nc3cc(Cl)ccc3Cl)c2)CC(C)O1 (stereo not drawn),6.75
23,Cc1ccc(NC(=O)C(C)OC(=O)c2n[nH]c3ccccc23)cc1 (stereo not drawn),7.35

row,SMILES,"hERG current change (%, negative = inhibition) at 1uM [%]"
1,Cn1cccc1C1C=C(c2ccc(C(C)(C)C)cc2)Nc2ncnn21 (stereo not drawn),1.34
2,O=C(Nc1ccc(F)c(F)c1)c1ccccc1,11.8
3,CCOC(=O)C(NC(=O)CC)(Nc1ccc(S(=O)(=O)Nc2ncccn2)cc1)C(F)(F)F (stereo not drawn),20.3
4,Cc1ccc(C(OCC(O)CNCc2ccc(F)cc2)c2ccccc2)cc1.O=C(O)C(=O)O (stereo not drawn),-75.4
5,COc1cccc(C(=O)N(Cc2nc(-c3ccc(C)cc3)no2)C(C)C)c1,8.61
6,O=C(C(=O)N1CCc2ccccc2C1)c1c[nH]c2ccccc12,11.1
7,Cl.OC(COc1c(F)cc(Br)cc1F)CN1CCN(c2ccc(F)cc2)CC1 (stereo not drawn),2.42
8,NNC(=O)C1CC(O)CN1S(=O)(=O)c1ccc2ccccc2c1 (stereo not drawn),16.8
9,O=C(CSc1n[nH]c(=O)n1-c1cccnc1)Nc1ccccc1,10.3
10,CCOC(=O)CSC(CC)C(=O)Nc1nnc(CC)s1 (stereo not drawn),3.34
11,CC1(C)C=Cc2c(c3ccccc3[nH]c2=O)O1,-0.433
12,CCOc1ccccc1C(=O)N(CN1CCCC1=O)c1cccc(Cl)c1,10.9
13,Cc1ccc(S(=O)(=O)Nc2cc(Cl)c(O)cc2C)cc1,1.11
14,Cc1ccc(C)n1-c1ccc(N2CCOCC2)cc1,0.619
15,S=C(NCc1ccc(Cl)cc1)Nc1ccncc1,7.06
16,Cc1cc(NS(=O)(=O)c2ccc(CC(C)C)cc2)no1,10.9
17,Cc1ccc(C(=O)NC2CC3CCCC(C2)N3C(=S)NCc2ccco2)cc1 (stereo not drawn),5.13
18,COc1ccc(C(=O)COC(=O)c2ccc3c(c2)NC(=O)CS3)c(OC)c1,-0.411
19,O=C(NCc1cccnc1)c1cccc(S(=O)(=O)Nc2cccc(Cl)c2)c1,4.29
20,CC1C(c2cccs2)=[N+]([O-])C(C)(C(=O)c2ccc(F)cc2)N1O (stereo not drawn),14.4
21,COc1ccccc1NC(=O)c1cc(S(=O)(=O)N2CCCCCC2)ccc1F,16.8
